{"source": "paper PMC4336329", "about": "(PLoS ONE, 2015)", "note": "Screen size: about 310,000 compounds; about 14,000 (4.5%) showed an effect of 50% or more. Effects have a minus sign here. This is one part of the list.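 Further: peak tail current of the secondary pulse compared with the same well before compound.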"}
{"biological_target": "human ether-à-go-go-related gene (hERG) potassium channel (human, UniProt Q12809)", "sequence (Q12809 whole entry, looked up)": "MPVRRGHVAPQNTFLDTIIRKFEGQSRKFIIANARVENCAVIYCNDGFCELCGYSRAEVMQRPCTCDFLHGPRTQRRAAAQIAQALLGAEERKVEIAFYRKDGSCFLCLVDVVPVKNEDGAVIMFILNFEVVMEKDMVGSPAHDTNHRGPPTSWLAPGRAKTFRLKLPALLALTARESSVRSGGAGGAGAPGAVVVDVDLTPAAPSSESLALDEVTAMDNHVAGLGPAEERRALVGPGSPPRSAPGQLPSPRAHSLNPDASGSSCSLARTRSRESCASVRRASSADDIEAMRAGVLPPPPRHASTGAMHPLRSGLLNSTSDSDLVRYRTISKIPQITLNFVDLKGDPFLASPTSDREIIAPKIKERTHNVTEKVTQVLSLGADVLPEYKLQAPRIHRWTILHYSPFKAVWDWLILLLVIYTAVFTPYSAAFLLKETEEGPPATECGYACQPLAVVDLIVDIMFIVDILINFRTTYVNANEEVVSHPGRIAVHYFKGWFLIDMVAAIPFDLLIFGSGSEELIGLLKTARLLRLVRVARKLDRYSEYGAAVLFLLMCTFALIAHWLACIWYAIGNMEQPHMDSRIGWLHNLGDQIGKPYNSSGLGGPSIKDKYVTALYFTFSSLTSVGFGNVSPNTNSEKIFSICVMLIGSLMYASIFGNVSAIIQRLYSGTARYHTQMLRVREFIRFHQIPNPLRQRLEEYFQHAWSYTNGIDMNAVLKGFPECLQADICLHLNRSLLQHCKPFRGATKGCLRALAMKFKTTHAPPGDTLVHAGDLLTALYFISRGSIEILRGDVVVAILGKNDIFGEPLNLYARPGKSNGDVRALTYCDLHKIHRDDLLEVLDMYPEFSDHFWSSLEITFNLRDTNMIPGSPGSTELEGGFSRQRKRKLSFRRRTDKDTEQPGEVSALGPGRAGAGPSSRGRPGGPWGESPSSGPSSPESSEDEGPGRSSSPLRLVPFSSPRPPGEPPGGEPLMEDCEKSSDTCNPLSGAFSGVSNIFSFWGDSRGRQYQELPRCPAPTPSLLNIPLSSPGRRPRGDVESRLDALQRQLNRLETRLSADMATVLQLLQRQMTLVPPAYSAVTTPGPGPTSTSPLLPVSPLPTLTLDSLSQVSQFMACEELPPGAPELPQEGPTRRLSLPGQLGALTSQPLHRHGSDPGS", "test": "primary screen, population patch clamp on CHO cells stably expressing hERG", "units": {"hERG current change (%, negative = inhibition) at 10uM": "%"}}
{"smiles": "COc1ccc([C@@H]2C=C(C(=O)O)O[C@H](OCCCCO)C2)cc1", "hERG current change (%, negative = inhibition) at 10uM": 14.7}
{"smiles": "c1csc(Cc2nn3c(-c4n[nH]c5c4CCC5)nnc3s2)c1", "hERG current change (%, negative = inhibition) at 10uM": -15.8}
{"smiles": "COc1ccc([C@@H]2CC=C(C(=O)O)[C@H](c3cccc(Cl)c3)N2S(=O)(=O)c2ccc(Cl)cc2)cc1", "hERG current change (%, negative = inhibition) at 10uM": 5.62}
{"smiles": "Cc1c(Cl)cccc1N/C(SCC(=O)N1CCCCCC1)=C(/C#N)c1nc2ccccc2s1", "hERG current change (%, negative = inhibition) at 10uM": 0.438}
{"smiles": "Cc1ccc(-c2ccc(=O)n(CCC(=O)N3CCN(c4ccccc4)CC3)n2)cc1", "hERG current change (%, negative = inhibition) at 10uM": -49.1}
{"smiles": "c1ccc(C[C@H]2CNCCN2CC2CCCCC2)cc1", "hERG current change (%, negative = inhibition) at 10uM": -18.1}
{"smiles": "CCN1CCN(C(=O)CSc2nc(N)cc(N)n2)CC1", "hERG current change (%, negative = inhibition) at 10uM": 44.8}
{"smiles": "COc1cc(CNc2ccc3[nH]c(=O)[nH]c3c2)ccc1OCc1cccc(C)c1", "hERG current change (%, negative = inhibition) at 10uM": 7.12}
{"smiles": "O=C(c1cc(Br)ccc1OC(F)F)N1CCN2CCCC2C1", "note": "(stereo not drawn)", "hERG current change (%, negative = inhibition) at 10uM": -4.15}
{"smiles": "C#Cc1ccc([C@@H]2C=C(C(=O)N3CCOCC3)O[C@H](OCc3ccc(CO)cc3)C2)cc1", "hERG current change (%, negative = inhibition) at 10uM": -27.6}
{"smiles": "Cc1nc2scc(C)n2c(=O)c1S(=O)(=O)NCC1CCN(Cc2ccc(Cl)cc2)CC1", "hERG current change (%, negative = inhibition) at 10uM": -50.1}
{"smiles": "CCOc1ccc(C2Nc3cccc4cccc(c34)N2)cc1OC", "hERG current change (%, negative = inhibition) at 10uM": 9.42}
{"smiles": "COc1ccc(-c2cn3nc(C)c(C)nc3n2)cc1OC", "hERG current change (%, negative = inhibition) at 10uM": -2.88}
{"smiles": "Cc1cc(Br)ccc1NC(=O)CN(C)C(=O)c1ccc(-n2cncn2)c([N+](=O)[O-])c1", "hERG current change (%, negative = inhibition) at 10uM": -64.4}
{"smiles": "CCCN1CC(=O)N2C(c3ccccc3)c3[nH]c4ccccc4c3C[C@H]2C1=O", "note": "(stereo partly drawn)", "hERG current change (%, negative = inhibition) at 10uM": -17.9}
{"smiles": "CC(C)(C)c1ccc(-c2nc3c(C#N)c(-c4ccc5c(c4)OCO5)ccn3n2)cc1", "hERG current change (%, negative = inhibition) at 10uM": 1.69}
{"smiles": "C/C(=N\\OC(=O)NC(C)C)c1sc(-c2ccccc2)nc1C", "hERG current change (%, negative = inhibition) at 10uM": -3.85}
{"smiles": "O=[N+]([O-])c1ccc(Cl)c(S(=O)(=O)Nc2ccc(S(=O)(=O)N3CCOCC3)cc2)c1", "hERG current change (%, negative = inhibition) at 10uM": 35.8}
{"smiles": "Br.c1ccc(-c2cc3n(c2)CCc2ccccc2-3)cc1", "hERG current change (%, negative = inhibition) at 10uM": 4.17}
{"smiles": "Cc1ccc(N2CCN(C(=O)c3ccccc3NC(=O)C3CC=CCC3C(=O)O)CC2)cc1", "note": "(stereo not drawn)", "hERG current change (%, negative = inhibition) at 10uM": 1.11}
{"smiles": "COc1ccc(N/C=C/c2nc(SC)nnc2C)cc1", "hERG current change (%, negative = inhibition) at 10uM": 8.13}
{"smiles": "Cc1ccc(CN2C(=O)c3ccccc3Sc3ccc(C(=O)NCCCN4CCOCC4)cc32)cc1", "hERG current change (%, negative = inhibition) at 10uM": -2.12}
{"smiles": "Cc1cccc(CCNC(=O)C2CCN(S(=O)(=O)c3c(C)noc3C)CC2)c1", "hERG current change (%, negative = inhibition) at 10uM": -23.2}
{"smiles": "N#C/C(=C\\c1ccco1)C(=O)Nc1ccc(S(N)(=O)=O)cc1", "hERG current change (%, negative = inhibition) at 10uM": 25.8}
{"smiles": "Nc1c(C(=O)c2ccc(Cl)cc2)sc2c1c(=O)[nH]c(=O)n2-c1ccccc1", "hERG current change (%, negative = inhibition) at 10uM": -24.2}
{"smiles": "O=S(=O)(Nc1cc(S(=O)(=O)N2CCOCC2)ccc1NCC1CCCO1)c1ccccc1F", "note": "(stereo not drawn)", "hERG current change (%, negative = inhibition) at 10uM": -6.25}
{"smiles": "Cc1nnsc1S(=O)c1ccc(Cl)c(Cl)c1", "note": "(stereo not drawn)", "hERG current change (%, negative = inhibition) at 10uM": -5.36}
{"smiles": "COC(=O)c1ccccc1NC(=O)CN1CCC(n2nnc3cc(C(F)(F)F)ccc32)CC1", "hERG current change (%, negative = inhibition) at 10uM": -6.14}
{"smiles": "CCOc1ccc(C2/C(=C(/O)c3ccc(S(=O)(=O)N4CCCCC4)cc3)C(=O)C(=O)N2CCCOC)cc1OC", "note": "(stereo not drawn)", "hERG current change (%, negative = inhibition) at 10uM": 10.6}
{"smiles": "Cc1ccc(C)n1-c1ccc(N2CCOCC2)nc1", "hERG current change (%, negative = inhibition) at 10uM": -1.52}
{"smiles": "CCN(C(=O)COC(=O)c1cc(=O)c2ccccc2o1)c1c(N)n(Cc2ccccc2)c(=O)[nH]c1=O", "hERG current change (%, negative = inhibition) at 10uM": -11.3}
{"smiles": "Cc1ccc(NC(=O)CN(C)C(=O)Cn2ccsc2=N)cc1.Cl", "hERG current change (%, negative = inhibition) at 10uM": 15.9}
{"smiles": "CC(=O)c1nc(N2C(=O)C3CC=C(C)CC3C2=O)sc1C", "note": "(stereo not drawn)", "hERG current change (%, negative = inhibition) at 10uM": 4.28}
{"smiles": "CC1=NN(c2ccc(Cl)cc2)C(=O)/C1=C\\c1cccn1-c1ccc(S(N)(=O)=O)cc1", "hERG current change (%, negative = inhibition) at 10uM": 0.43}
{"smiles": "CCN(CCn1cccn1)C(=O)CCc1nnc(CCCc2ccccc2)o1", "hERG current change (%, negative = inhibition) at 10uM": -37}
{"smiles": "Cc1nc2sc(C(=O)O)c(N)c2c2c1COC(C)(C)C2", "hERG current change (%, negative = inhibition) at 10uM": 9.19}
{"smiles": "CC1(C)CC(=O)C(C=NCCCn2ccnc2)=C(O)C1", "hERG current change (%, negative = inhibition) at 10uM": -3.97}
{"smiles": "O=C(N/N=C/c1cccs1)c1cccc(NC(=O)c2ccc(Cl)cc2)c1", "hERG current change (%, negative = inhibition) at 10uM": 7.57}
{"smiles": "CS(=O)(=O)c1ccccc1-c1nnc(NC(=O)c2ccco2)o1", "hERG current change (%, negative = inhibition) at 10uM": 10.7}
{"smiles": "O=C(CSc1nnc(-c2ccco2)o1)c1ccc(F)c(F)c1", "hERG current change (%, negative = inhibition) at 10uM": 1.29}
{"smiles": "CCC1(CC)C(=O)C2=C3C1[C@H](C(=O)OC)CC(C(=O)OC)C[C@H]3n1c(=O)n(C)c(=O)n1[C@H]2C", "note": "(stereo partly drawn)", "hERG current change (%, negative = inhibition) at 10uM": 15.8}
{"smiles": "COc1cc(NC(=O)COc2ccccc2Cl)ccc1NC(=O)C(C)C", "hERG current change (%, negative = inhibition) at 10uM": 6.75}
